B1: CPEB3 Ribozyme (parent)
chain: UAACAGGGGGCCACAGCAGAAGCGUUCACGUCGCAGCCCCUGUCAGAUUCUGGUGAAUCUGCGAAUUCUGCUGUAUAUCUC

83 variants from the RNAGym collection of RNA variant scans (doi:10.1093/nar/gkz1192) can be followed below.

The source gives no read counts; variants with many changes may rest on few reads.

The data set covers variants of B1. The experiment in a line: self-cleavage, relative activity (ratio to wild type); higher = more cleavage; in vitro, sequencing. The method in brief: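 Barcoded CPEB3 ribozyme mutants, produced by rounds of error-prone PCR, self-cleaved while being transcribed with T7 RNA polymerase for 5 hours at 37°C and during a subsequent 15 min DNase I step before EDTA was added. Sequencing of template-switched cDNA on Illumina gave cleaved and total reads, and DNA sequencing assigned barcodes to variants. Each variant's relative activity is its cleaved/total read fraction divided by the unmutated ribozyme's fraction, averaged across three batches. A variant needed a minimum of 5 reads.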
Take A15G A45G U49C: the self-cleavage stood at 0.22.

Consider A15G A18G A21G U31C A65G, for which the self-cleavage is 0.11. In the case of A15G G46U C50A A75C, the self-cleavage came out at 0.32. The result for A15G U26A U41C A47G reads 0.5; that for A15G U26C U51A U80G, 0.36; that for A15G U76C U78A, 1.13. On to A15G A21G U25C U26C U72G, for which the self-cleavage was 0.06. Consider A15G U51A A56U A57G U76C, for which the self-cleavage came to 0.21.

In the case of A15G G42U U43C A47G U58C, the self-cleavage was 0.1.

For the variant A15G A21G U41A A57G A77G, the self-cleavage is 0.07.

Turning to A15U A18U C44A A75G, the self-cleavage amounted to 0.03. As for A15G U26C A35G U43C A56G A75G, the self-cleavage was 0.19.

Regarding A15G G30A U41C U48G A64G, the self-cleavage came to 0.06. For the variant A15U A18G A56U, the self-cleavage turned out to be 0.19. With A15G U48C A56G U60C, the self-cleavage stood at 0.14. As for A15U A20G A35U U41A U54C A65G U72A, the self-cleavage was determined as 0.13.

Take A15G U31C A57G U78C: the self-cleavage was found to be 0.44. A15G A21G A45G U54A U72C: the self-cleavage came to 0.8. Take A15G U31A A35G U51G U67A: the self-cleavage came out at 0.62. On to A15G A28G A65G, for which the self-cleavage stood at 0.24. As for A15G A28G U49C, the self-cleavage stood at 0.13. As to A15G U25A A35G, the self-cleavage was found to be 0.33. For A15G A28G C50A U72A, the self-cleavage was 0.3.

Regarding A15G A28U C32A A35U A65G U67C U72C, the self-cleavage was found to be 0.06.

As for A15G U49C U54G A57G, the self-cleavage was determined as 0.23. To A15G A35U G52U U67C belongs 0.13; to A15U A20G U51C U69C U76A, 0.17. Take A15G A21G U26C U69C: the self-cleavage stood at 0.15. As for A15G G53C A56G U80C, the self-cleavage came to 0.81. Consider A15G U25C U41C A57G U74G, for which the self-cleavage was 0.13. To A15U A18U U31G G53A U60A belongs 0.05. To A15G A21G U41A G52A belongs 0.07; to A15G C59A G73U, 0.14; to A15C U49A G55U G70A U76C, 0.36. With A15G U25C A45U U66C, the self-cleavage worked out at 0.17. For the variant A15U A28U U41C U67C U72C U80A, the self-cleavage came out at 0.1. A15G A35G U78C: the self-cleavage is 0.65. With A15G G19C U25C U31C G33A U67A, the self-cleavage worked out at 0.04. The result for A15G A20U U31C A64G U72C C79A reads 0.07; that for A15G U41A A64U U78C, 0.18. On to A15U A18G G33C A56G A77G, for which the self-cleavage came to 0.03. In the case of A15G A20G A35U U54C A57G, the self-cleavage turned out to be 0.1. A15U A21G A35G U51C U54C A57G C79U: the self-cleavage was found to be 0.42. For the variant A15G U25C A35G, the self-cleavage amounted to 0.31. The result for A15G U25C A45C U78A reads 0.15; that for A15G C62U U66C U76C, 0.3. Regarding A15G A21U U54A, the self-cleavage was found to be 0.14.

For A15G U51A A65U U69C, the self-cleavage came out at 0.08. For the variant A15G A18G U54A, the self-cleavage came to 0.42. Consider A15G A45U A47G U48C U69C, for which the self-cleavage worked out at 0.06. With A15U A18U U26C G30U, the self-cleavage came out at 0.17. For A15G G30A U41A A56G, the self-cleavage amounted to 0.26. As to A15G U41A A56G U58C, the self-cleavage amounted to 0.05.

For the variant A15G A35U U67C U74C, the self-cleavage stood at 0.1. Consider A15G U26C A35G U51C U69C U80C, for which the self-cleavage was 0.17. As for A15G A64G U69C, the self-cleavage amounted to 0.24.

In the case of A15G A20C A35G U54C U69G, the self-cleavage was 0.34. Consider A15G A20U U25C C29U A45G, for which the self-cleavage was found to be 0.11. Regarding A15U A18G U25C C27A A28U A64G G73A, the self-cleavage was 0.25. Consider A15G C50A A77G, for which the self-cleavage stood at 0.99. With A15G U41C U49C U74C, the self-cleavage worked out at 0.16. As for A15U A18G A28U, the self-cleavage was determined as 0.12. In the case of A15G U26A A28G U54C G70U, the self-cleavage came out at 0.07. Take A15G A35G A56C: the self-cleavage worked out at 0.28.

A15G A20G C29A: the self-cleavage came to 0.14. To A15G C44A A45G U78C belongs 0.16; to A15G C39A U49C U76A, 0.24. With A15G A35C U43A U48C U54C, the self-cleavage was determined as 0.22. Regarding A15G A56U U60C, the self-cleavage worked out at 0.22. For A15U A18C A35U, the self-cleavage is 0.32. The result for A15U A18C A35G reads 0.49. As for A15G A56G A64G, the self-cleavage was 0.55. For the variant A15G U51C A75U U80C, the self-cleavage was found to be 0.9.

As to A15G U26C A57G U58C A64G U72C, the self-cleavage was found to be 0.23.

A15U A20G A21G G36C A45G A57C: the self-cleavage is 0.06. In the case of A15G C32A U51A, the self-cleavage worked out at 0.33.

In the case of A15G A28G U66A U69C, the self-cleavage stood at 0.2. To A15G U26C A35C belongs 0.34. As for A15G A35U C62U, the self-cleavage turned out to be 0.25.

In the case of A15G G63U C68G, the self-cleavage was 0.22. In the case of A15G G22A U26C G30A A35G U72C, the self-cleavage turned out to be 0.05. To A15G U43G A45U belongs 0.1.

With A15U A18G U69C G70U U78C, the self-cleavage stood at 0.1.
